# Measured values: the supplement of paper PMC3334620
# Over roughly 33,000 sequences, “E-score (-0.5 to 0.5)” has its median near -0.036; the highest 2% begin near 0.37. The list shows a part of the results.
# Biological target: T1, Yer064c (UniProt P40041)
# T1 sequence: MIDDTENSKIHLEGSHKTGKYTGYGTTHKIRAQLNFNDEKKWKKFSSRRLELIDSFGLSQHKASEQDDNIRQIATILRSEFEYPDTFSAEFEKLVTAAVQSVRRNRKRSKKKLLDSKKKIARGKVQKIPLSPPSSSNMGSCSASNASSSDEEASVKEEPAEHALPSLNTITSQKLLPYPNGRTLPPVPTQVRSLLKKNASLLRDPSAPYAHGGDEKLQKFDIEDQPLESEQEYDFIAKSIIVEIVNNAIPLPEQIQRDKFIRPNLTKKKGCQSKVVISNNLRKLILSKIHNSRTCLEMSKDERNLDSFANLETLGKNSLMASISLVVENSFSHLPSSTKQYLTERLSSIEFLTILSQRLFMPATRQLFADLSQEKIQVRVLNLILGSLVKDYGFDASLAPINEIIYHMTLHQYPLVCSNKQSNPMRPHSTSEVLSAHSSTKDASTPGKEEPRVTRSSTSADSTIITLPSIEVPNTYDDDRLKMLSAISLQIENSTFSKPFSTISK
# Assay: PBM E-score (8-mer binding enrichment) (E-score (-0.5 to 0.5)); higher = stronger / more preferred TF binding; most listed sequences are background and not binding sites
# Conditions: protein concentration: 200 nM; construct: GST-full length
# Procedure: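 Universal 'all 10-mer' protein binding microarrays (Agilent AMADID 015681) probed with GST-tagged S. cerevisiae TFs (full-length or DBD) made by in vitro transcription/translation (PURExpress), about 100-200 nM. Bound TF was detected with fluorescent anti-GST. Each ungapped 8-mer (which stands for itself and its reverse complement) is scored by the PBM enrichment score (E-score), a modified Wilcoxon-Mann-Whitney statistic from -0.5 to +0.5, computed with the Universal PBM Analysis Suite. Scale: above 0.35 generally sequence-specific binding.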
row,Sequence,PBM E-score
1,AGATAATC,0.213
2,CAGCGATA,-0.181
3,GATCCAGA,-0.0405
4,CCACGCCG,0.0673
5,AATGGTTA,0.158
6,AAGATTCA,0.37
7,AAGACTAT,0.417
8,AAGGGACT,0.245
9,CAGCCTAA,-0.142
10,GACACAGA,0.00032
11,ACGGACAC,-0.0251
12,CTCCTCGA,0.0215
13,CTTCGCGC,-0.0112
14,CAACACGG,-0.0306
15,CCAACTAC,-0.203
16,CCATCGAG,-0.0169
17,TATTAATA,-0.219
18,CCGCTCAG,-0.269
19,GAGTGCGA,0.0474
20,CAACATAC,0.0294
21,ACTTCACA,-0.0308
22,CCCAACGC,-0.164
23,CTTAAGCC,-0.0733
24,CAGAGCAG,0.0208
25,ACAAGAAT,0.0495

row,Sequence,PBM E-score
1,AATTGTAC,0.115
2,ACGGCCCG,-0.113
3,ATGCGTTG,-0.123
4,ACTCTCTC,0.0916
5,GACTTAAA,0.325
6,ACTGTTTG,0.146
7,AGTATACA,0.0167
8,CTGGGAAC,-0.115
9,ACTTTGGA,0.173
10,GCATCCAC,-0.0789
11,GGTTTAAC,0.106
12,ACTGTCCG,-0.022
13,CGCTGAGA,0.00195
14,TGCGTACA,-0.0452
15,TACAACAA,0.109
16,GCCAGAAA,-0.0404
17,CTGTGGTA,-0.0655
18,AACCTTAC,0.0889
19,CAGCAGTC,0.283
20,CCATATAC,0.123
21,ATTGATAG,0.0531
22,ACACTTCT,-0.0798
23,AGGGCGGC,-0.24
24,CTATGAAA,0.0225
25,ATATAACA,-0.0233

row,Sequence,PBM E-score
1,GACACCTA,-0.0466
2,GTTCATAA,0.0537
3,AATCTACC,0.00667
4,GTCTGTTA,-0.0206
5,AGGTACTG,-0.04
6,GGGACCAC,-0.023
7,ACGGAGAT,0.0115
8,AGCCGATG,-0.0329
9,AAATTAAC,0.0295
10,ATTAGACA,0.171
11,TTTCGAAA,0.154
12,TATTACGA,-0.0171
13,CCTCGTTC,-0.258
14,ATCAAACA,0.164
15,AATCCCAA,-0.233
16,ATATTGAT,0.093
17,CGGGGCCA,-0.249
18,CACACCTA,0.0389
19,ACGCATAT,-0.225
20,ACTGGCAT,-0.026
21,CAATTATG,-0.00919
22,CGGCTCAG,0.0602
23,CATGATAA,0.12
24,TGTAGACA,0.0684
25,CTCGGAAC,-0.012

row,Sequence,PBM E-score
1,ATCGTGTA,0.0855
2,ACGCATAG,-0.169
3,CTGTTCTA,-0.0779
4,GCATGTCC,-0.285
5,ACGCATCT,-0.0617
6,CAGTCGCA,0.15
7,ACCGAATC,0.0404
8,ACAAGCGC,-0.201
9,CTGCCACC,-0.206
10,ATTTTTGA,0.0961
11,AAGTGGTA,-0.0878
12,AAGAAATG,-0.0578
13,CCTCACCA,-0.134
14,AGGGCTCG,-0.284
15,ACCGAGGG,-0.323
16,CCCGGGTC,-0.198
17,AGCGCGGC,-0.245
18,CGGGTAAA,0.0546
19,CTACTCTA,0.159
20,ATTTGGTA,0.0742
21,GATCTGAC,0.147
22,CGATTAAA,0.249
23,AGCGTTCC,-0.147
24,CTATTGAG,0.262
25,GATTAATC,0.391

row,Sequence,PBM E-score
1,CATCCTCG,-0.202
2,ATATTATG,0.0717
3,GTCGCTAA,0.18
4,ATATGCAA,-0.11
5,AACTATTA,-0.00806
6,CTGGTCCC,-0.303
7,CCAACGAG,-0.121
8,ACTTAATG,0.204
9,ATTATTTC,0.0626
10,AAGTAATT,0.151
11,AGGCCGTG,-0.108
12,CACAACGC,-0.121
13,CCTCCCAG,-0.431
14,AGTAGCTA,-0.119
15,CTATCCAG,-0.114
16,GAATGCGA,-0.135
17,GTTTCGGA,-0.0974
18,GGTAGCAC,-0.158
19,AGCATACA,-0.152
20,CTCAAGCC,0.0764
21,CGGTGGAG,-0.234
22,CGGCCGAA,-0.0494
23,GAGAGAGC,-0.143
24,AGCCTTAT,-0.104
25,GACGGACA,-0.0475

row,Sequence,PBM E-score
1,GGGATCAA,-0.115
2,ATTGTCTC,-0.116
3,TACTGTAA,-0.0235
4,CGCCATGA,0.174
5,TGAAACCA,0.0456
6,CAACTCGA,0.0939
7,CTATAGTA,0.0624
8,AGTAGGCG,-0.0693
9,ACGACTGA,0.321
10,ATTTCAAA,0.129
11,CCTCCGCC,-0.173
12,GGTGGGAA,-0.0925
13,CACGCGCA,-0.152
14,AATAGCTG,-0.0714
15,CGAGATGC,0.0291
16,ATCCTTGA,0.0259
17,ATATCAGG,-0.00963
18,AATTTCCG,-0.0994
19,GGGACCCA,-0.0528
20,ACCCTCAA,-0.0132
21,AGACGTGA,0.175
22,CCGATAGG,-0.111
23,AACTGAGC,-0.121
24,CGTCATGC,-0.173
25,ATCAATGG,0.176

row,Sequence,PBM E-score
1,GTTTGTGA,0.125
2,AGACATGG,0.208
3,AGGAGAAT,-0.0387
4,ACTGCCAA,0.148
5,AGTTGATC,0.0925
6,AGAATATC,-0.0764
7,ACGAACGA,0.00195
8,AAGGTCTC,-0.0115
9,GCAACGAA,-0.0398
10,ATCTAAAC,-0.0015
11,TTCGCAAA,-0.00849
12,AACCCCTG,-0.0959
13,AATTGATG,0.128
14,ATGACGTC,0.116
15,AACAGGTT,-0.0668
16,AGTTCATG,0.215
17,CAATCAGC,0.317
18,CATGCGCC,-0.196
19,AATTGCAA,-0.15
20,CCCAGCGC,-0.071
21,AACAAAAC,-0.102
22,ACCGACTG,0.00611
